In article PMC9925316:
No constants are given. Whether binding was seen depends on the method and setting. Some entries that bind do so weakly or less than the wild type.

Protein sequences, listed by entry. Tags and fused reporters are not part of them.
UniProt P15559: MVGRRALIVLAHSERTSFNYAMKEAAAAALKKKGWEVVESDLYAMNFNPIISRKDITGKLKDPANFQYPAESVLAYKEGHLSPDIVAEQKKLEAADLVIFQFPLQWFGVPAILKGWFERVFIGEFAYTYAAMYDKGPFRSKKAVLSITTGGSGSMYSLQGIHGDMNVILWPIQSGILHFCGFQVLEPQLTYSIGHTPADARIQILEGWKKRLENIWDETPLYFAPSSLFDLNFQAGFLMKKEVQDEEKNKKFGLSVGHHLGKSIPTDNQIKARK

Molecular target: NQO1 protein (UniProt P15559)
Assay: mobility shift on non-reducing SDS-PAGE with silver staining; NQO1 protein reacted with increasing concentrations of DBD peptide; electrophoresis on reducing and non-reducing gels; silver staining; both purified

**Q.** How did the binding turn out when EEKRRIRRERNKMAAAKCRNRRRELT (N-terminal acetyl (Ac-); C-terminal amide (-NH2)) [NQO1-binding c-Fos (DBD) peptide] was run?
**A.** binds
